± gives the standard deviation of the averaged measurements. Restriction of a single-cycle SIVsab GFP reporter by TRIM5α v1-loop variants in CRFK cells. Human variants: read share among cells still uninfected after two challenges over input, higher = gained restriction. Rhesus variants: share among infected cells over input, higher = lost restriction. Reporter dose not given per row. No active / inactive call per row; the paper calls a change when both replicates lie above its controls (mean + 2 SD of stop or wild-type variants, or the top frameshift score). Residues outside the varied loop are taken from Swiss-Prot. The paper reads the human single-substitution scores as noise; they and the rhesus combinations repeat poorly (rank correlation 0.3 to 0.4), indel scores repeat only for the top variants, rhesus substitutions well (0.9).
System: SIVsab (simian immunodeficiency virus of sabaeus monkeys), single-cycle GFP reporter, in CRFK cells
Assay: enrichment among uninfected cells over input (fold); higher = stronger restriction
Conditions: library: human / rhesus combinations
Description: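 Pools of CRFK cells expressing variants of the TRIM5α v1 loop were challenged with the single-cycle reporter, sorted by GFP and sequenced; mean of two replicates.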

Row | Sequence | enrichment
1 | MASGILVNVKEEVTCPICLELLTQPLSLDCGHSFCQACLTANHKKSMLDKGESSCPVCRISYQPENIRPNRHVANIVEKLREVKLSPEGQKVDHCARHGEKLLLFCQEDGKVICWLCERSQEHRGHHTFLTEEVAREYQVKLQAALEMLRQKQQEAEELEADIREEKASWKTQIQYDKTNVLADFEQLRDILDWEESNELQNLEKEEEDILKSLTNSETEMVQQTQSLRELISDLEHRLQGSVMELLQGVDGVIKRTENVTLKKPETFPKNQRRVFRAPDLKGMLEVFRELTDVRRYWVDVTVAPNNISCAVISEDKRQVSSPKPQIIYGARGTRFTFPTLVNFNYCTGILGSQSITSGKHYWEVDVSKKTAWILGVCAGFQPDAMCNIEKNENYQPKYGYWVIGLEEGVKCSAFQDSSFHTPSVPFIVPLSVIICPDRVGVFLDYEACTVSFFNITNHGFLIYKFSHCSFSQPVFPYLNPRKCGVPMTLCSPSS [human TRIM5α, 330-340 = GARGTRFTFPTLV] | 0.123 ± 0.077
2 | MASGILVNVKEEVTCPICLELLTQPLSLDCGHSFCQACLTANHKKSMLDKGESSCPVCRISYQPENIRPNRHVANIVEKLREVKLSPEGQKVDHCARHGEKLLLFCQEDGKVICWLCERSQEHRGHHTFLTEEVAREYQVKLQAALEMLRQKQQEAEELEADIREEKASWKTQIQYDKTNVLADFEQLRDILDWEESNELQNLEKEEEDILKSLTNSETEMVQQTQSLRELISDLEHRLQGSVMELLQGVDGVIKRTENVTLKKPETFPKNQRRVFRAPDLKGMLEVFRELTDVRRYWVDVTVAPNNISCAVISEDKRQVSSPKPQIIYGAPGTRFTFPSFTNFNYCTGILGSQSITSGKHYWEVDVSKKTAWILGVCAGFQPDAMCNIEKNENYQPKYGYWVIGLEEGVKCSAFQDSSFHTPSVPFIVPLSVIICPDRVGVFLDYEACTVSFFNITNHGFLIYKFSHCSFSQPVFPYLNPRKCGVPMTLCSPSS [human TRIM5α, 330-340 = GAPGTRFTFPSFT] | 0.185 ± 0.022
3 | MASGILVNVKEEVTCPICLELLTQPLSLDCGHSFCQACLTANHKKSMLDKGESSCPVCRISYQPENIRPNRHVANIVEKLREVKLSPEGQKVDHCARHGEKLLLFCQEDGKVICWLCERSQEHRGHHTFLTEEVAREYQVKLQAALEMLRQKQQEAEELEADIREEKASWKTQIQYDKTNVLADFEQLRDILDWEESNELQNLEKEEEDILKSLTNSETEMVQQTQSLRELISDLEHRLQGSVMELLQGVDGVIKRTENVTLKKPETFPKNQRRVFRAPDLKGMLEVFRELTDVRRYWVDVTVAPNNISCAVISEDKRQVSSPKPQIIYGARGTRFTFPTFTNFNYCTGILGSQSITSGKHYWEVDVSKKTAWILGVCAGFQPDAMCNIEKNENYQPKYGYWVIGLEEGVKCSAFQDSSFHTPSVPFIVPLSVIICPDRVGVFLDYEACTVSFFNITNHGFLIYKFSHCSFSQPVFPYLNPRKCGVPMTLCSPSS [human TRIM5α, 330-340 = GARGTRFTFPTFT] | 0.0283 ± 0.04
4 | MASGILVNVKEEVTCPICLELLTQPLSLDCGHSFCQACLTANHKKSMLDKGESSCPVCRISYQPENIRPNRHVANIVEKLREVKLSPEGQKVDHCARHGEKLLLFCQEDGKVICWLCERSQEHRGHHTFLTEEVAREYQVKLQAALEMLRQKQQEAEELEADIREEKASWKTQIQYDKTNVLADFEQLRDILDWEESNELQNLEKEEEDILKSLTNSETEMVQQTQSLRELISDLEHRLQGSVMELLQGVDGVIKRTENVTLKKPETFPKNQRRVFRAPDLKGMLEVFRELTDVRRYWVDVTVAPNNISCAVISEDKRQVSSPKPQIIYGAPGTRFTFPSFVNFNYCTGILGSQSITSGKHYWEVDVSKKTAWILGVCAGFQPDAMCNIEKNENYQPKYGYWVIGLEEGVKCSAFQDSSFHTPSVPFIVPLSVIICPDRVGVFLDYEACTVSFFNITNHGFLIYKFSHCSFSQPVFPYLNPRKCGVPMTLCSPSS [human TRIM5α, 330-340 = GAPGTRFTFPSFV] | 0.124 ± 0.034
5 | MASGILVNVKEEVTCPICLELLTQPLSLDCGHSFCQACLTANHKKSMLDKGESSCPVCRISYQPENIRPNRHVANIVEKLREVKLSPEGQKVDHCARHGEKLLLFCQEDGKVICWLCERSQEHRGHHTFLTEEVAREYQVKLQAALEMLRQKQQEAEELEADIREEKASWKTQIQYDKTNVLADFEQLRDILDWEESNELQNLEKEEEDILKSLTNSETEMVQQTQSLRELISDLEHRLQGSVMELLQGVDGVIKRTENVTLKKPETFPKNQRRVFRAPDLKGMLEVFRELTDVRRYWVDVTVAPNNISCAVISEDKRQVSSPKPQIIYQAPGTRFTFQSFVNFNYCTGILGSQSITSGKHYWEVDVSKKTAWILGVCAGFQPDAMCNIEKNENYQPKYGYWVIGLEEGVKCSAFQDSSFHTPSVPFIVPLSVIICPDRVGVFLDYEACTVSFFNITNHGFLIYKFSHCSFSQPVFPYLNPRKCGVPMTLCSPSS [human TRIM5α, 330-340 = QAPGTRFTFQSFV] | 0.46 ± 0.057

Same assay, conditions: library: insertions and deletions

Row | Sequence | enrichment
6 | MASGILVNVKEEVTCPICLELLTQPLSLDCGHSFCQACLTANHKKSMLDKGESSCPVCRISYQPENIRPNRHVANIVEKLREVKLSPEGQKVDHCARHGEKLLLFCQEDGKVICWLCERSQEHRGHHTFLTEEVAREYQVKLQAALEMLRQKQQEAEELEADIREEKASWKTQIQYDKTNVLADFEQLRDILDWEESNELQNLEKEEEDILKSLTNSETEMVQQTQSLRELISDLEHRLQGSVMELLQGVDGVIKRTENVTLKKPETFPKNQRRVFRAPDLKGMLEVFRELTDVRRYWVDVTVAPNNISCAVISEDKRQVSSPKPQIIYGARGTRYQTFVNFNYFVNFNYCTGILGSQSITSGKHYWEVDVSKKTAWILGVCAGFQPDAMCNIEKNENYQPKYGYWVIGLEEGVKCSAFQDSSFHTPSVPFIVPLSVIICPDRVGVFLDYEACTVSFFNITNHGFLIYKFSHCSFSQPVFPYLNPRKCGVPMTLCSPSS [human TRIM5α, 6-codon duplication at 339] | 1.17 ± 0.23
7 | MASGILVNVKEEVTCPICLELLTQPLSLDCGHSFCQACLTANHKKSMLDKGESSCPVCRISYQPENIRPNRHVANIVEKLREVKLSPEGQKVDHCARHGEKLLLFCQEDGKVICWLCERSQEHRGHHTFLTEEVAREYQVKLQAALEMLRQKQQEAEELEADIREEKASWKTQIQYDKTNVLADFEQLRDILDWEESNELQNLEKEEEDILKSLTNSETEMVQQTQSLRELISDLEHRLQGSVMELLQGVDGVIKRTENVTLKKPETFPKNQRRVFRAPDLKGMLEVFRELTDVRRYWVDVTVAPNNISCAVISEDKRQVSSPKPQIIYGARGTRYQTFVNFNYCTGILGSQYCTGILGSQSITSGKHYWEVDVSKKTAWILGVCAGFQPDAMCNIEKNENYQPKYGYWVIGLEEGVKCSAFQDSSFHTPSVPFIVPLSVIICPDRVGVFLDYEACTVSFFNITNHGFLIYKFSHCSFSQPVFPYLNPRKCGVPMTLCSPSS [human TRIM5α, 9-codon duplication at 344] | 0.582 ± 0.48
8 | MASGILVNVKEEVTCPICLELLTQPLSLDCGHSFCQACLTANHKKSMLDKGESSCPVCRISYQPENIRPNRHVANIVEKLREVKLSPEGQKVDHCARHGEKLLLFCQEDGKVICWLCERSQEHRGHHTFLTEEVAREYQVKLQAALEMLRQKQQEAEELEADIREEKASWKTQIQYDKTNVLADFEQLRDILDWEESNELQNLEKEEEDILKSLTNSETEMVQQTQSLRELISDLEHRLQGSVMELLQGVDGVIKRTENVTLKKPETFPKNQRRVFRAPDLKGMLEVFRELTDVRRYWVDVTVAPNNISCAVISEDKRQVSSPKPQIIYGARGTRYQTFVNSQSITSGKHYWEVDVSKKTAWILGVCAGFQPDAMCNIEKNENYQPKYGYWVIGLEEGVKCSAFQDSSFHTPSVPFIVPLSVIICPDRVGVFLDYEACTVSFFNITNHGFLIYKFSHCSFSQPVFPYLNPRKCGVPMTLCSPSS [human TRIM5α, 9-codon deletion at 342] | 6.88 ± 8.8
9 | MASGILVNVKEEVTCPICLELLTQPLSLDCGHSFCQACLTANHKKSMLDKGESSCPVCRISYQPENIRPNRHVANIVEKLREVKLSPEGQKVDHCARHGEKLLLFCQEDGKVICWLCERSQEHRGHHTFLTEEVAREYQVKLQAALEMLRQKQQEAEELEADIREEKASWKTQIQYDKTNVLADFEQLRDILDWEESNELQNLEKEEEDILKSLTNSETEMVQQTQSLRELISDLEHRLQGSVMELLQGVDGVIKRTENVTLKKPETFPKNQRRVFRAPDLKGMLEVFRELTDVRRYWVDVTVAPNNISCAVISEDKRQVSSPKPQIIYGARGTRYQTGTRYQTFVNFNYCTGILGSQSITSGKHYWEVDVSKKTAWILGVCAGFQPDAMCNIEKNENYQPKYGYWVIGLEEGVKCSAFQDSSFHTPSVPFIVPLSVIICPDRVGVFLDYEACTVSFFNITNHGFLIYKFSHCSFSQPVFPYLNPRKCGVPMTLCSPSS [human TRIM5α, 6-codon duplication at 333] | 0.636 ± 0.087
10 | MASGILVNVKEEVTCPICLELLTQPLSLDCGHSFCQACLTANHKKSMLDKGESSCPVCRISYQPENIRPNRHVANIVEKLREVKLSPEGQKVDHCARHGEKLLLFCQEDGKVICWLCERSQEHRGHHTFLTEEVAREYQVKLQAALEMLRQKQQEAEELEADIREEKASWKTQIQYDKTNVLADFEQLRDILDWEESNELQNLEKEEEDILKSLTNSETEMVQQTQSLRELISDLEHRLQGSVMELLQGVDGVIKRTENVTLKKPETFPKNQRRVFRAPDLKGMLEVFRELTDVRRYWVDVTVAPNNISCAVISEDKRQVSSPKPQIIYGARGTRRYQTFVNFNYCTGILGSQSITSGKHYWEVDVSKKTAWILGVCAGFQPDAMCNIEKNENYQPKYGYWVIGLEEGVKCSAFQDSSFHTPSVPFIVPLSVIICPDRVGVFLDYEACTVSFFNITNHGFLIYKFSHCSFSQPVFPYLNPRKCGVPMTLCSPSS [human TRIM5α, 1-codon duplication at 335] | 0.634 ± 0.18
11 | MASGILVNVKEEVTCPICLELLTQPLSLDCGHSFCQACLTANHKKSMLDKGESSCPVCRISYQPENIRPNRHVANIVEKLREVKLSPEGQKVDHCARHGEKLLLFCQEDGKVICWLCERSQEHRGHHTFLTEEVAREYQVKLQAALEMLRQKQQEAEELEADIREEKASWKTQIQYDKTNVLADFEQLRDILDWEESNELQNLEKEEEDILKSLTNSETEMVQQTQSLRELISDLEHRLQGSVMELLQGVDGVIKRTENVTLKKPETFPKNQRRVFRAPDLKGMLEVFRELTDVRRYWVDVTVAPNNISCAVISEDKRQVSSPKPQIIYGARGTFVNFNYCTGILGSQSITSGKHYWEVDVSKKTAWILGVCAGFQPDAMCNIEKNENYQPKYGYWVIGLEEGVKCSAFQDSSFHTPSVPFIVPLSVIICPDRVGVFLDYEACTVSFFNITNHGFLIYKFSHCSFSQPVFPYLNPRKCGVPMTLCSPSS [human TRIM5α, 4-codon deletion at 334] | 0.56 ± 0.21
12 | MASGILVNVKEEVTCPICLELLTQPLSLDCGHSFCQACLTANHKKSMLDKGESSCPVCRISYQPENIRPNRHVANIVEKLREVKLSPEGQKVDHCARHGEKLLLFCQEDGKVICWLCERSQEHRGHHTFLTEEVAREYQVKLQAALEMLRQKQQEAEELEADIREEKASWKTQIQYDKTNVLADFEQLRDILDWEESNELQNLEKEEEDILKSLTNSETEMVQQTQSLRELISDLEHRLQGSVMELLQGVDGVIKRTENVTLKKPETFPKNQRRVFRAPDLKGMLEVFRELTDVRRYWVDVTVAPNNISCAVISEDKRQVSSPKPQIIYGARGTRYQVNFNYCTGILGSQSITSGKHYWEVDVSKKTAWILGVCAGFQPDAMCNIEKNENYQPKYGYWVIGLEEGVKCSAFQDSSFHTPSVPFIVPLSVIICPDRVGVFLDYEACTVSFFNITNHGFLIYKFSHCSFSQPVFPYLNPRKCGVPMTLCSPSS [human TRIM5α, 2-codon deletion at 338] | 0.933 ± 0.76

Source: the supplement of paper PMC12230231
